Experimental data taken from PubChem BioAssay AID1466 (National Center for Advancing Translational Sciences (NCATS), 2008).
Hit rate of the full screen: of about 200,000 compounds, about 10 (0.005%) were called active. This list was built around the results that the source calls inconclusive (neither active nor inactive); the mix of calls is not that of the screen. Calls come from the whole dose curve; as a rule, active = well fitted inhibition curve with a large enough effect; inconclusive = small, poorly fitted or top-dose-only effect, or effect the other way, or another doubt; inactive = no such curve, though single readings can be large or run the other way. Where the call is inconclusive, the potency comes from a doubtful curve fit.

Target: Lysosomal alpha-glucosidase (Homo sapiens) (UniProt P10253)
Test: qHTS Assay for Inhibitors of Human alpha-Glucosidase as a Potential Chaperone Treatment of Pompe Disease;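 for activity change, negative = inhibition: plate controls were uninhibited enzyme wells for no effect and no-enzyme background for full effect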
Details: purified human GAA, 4-MU-alpha-glucoside fluorescence; activity change, negative = inhibition: at 76.9 µM (top of the series) unless noted
How it was run: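 Fluorescence at Ex 365/Em 440 nm from 4-methylumbelliferone reported enzyme activity after 20 min at room temperature. Reactions used 4 nM enzyme and 400 uM substrate at pH 5.0; curves fitted with the Hill equation.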
Potency is the fitted concentration of half-maximal effect; tags give direction and shape of the fitted curve.

Potency, inactive:
CCCc1nc(NCc2ccccn2)c2nnn(Cc3ccccc3F)c2n1
NC(=O)c1ccccc1N/C=C/C(=O)c1ccccc1
CCC(C)NC(=O)CCSc1ccc(C)cc1 (configuration not stated)
CN1CCN(Cc2nc3ccccc3c(=O)n2Cc2nc(-c3cccc([N+](=O)[O-])c3)cs2)CC1

Potency, inconclusive:
CCC(=O)Nc1c(S(=O)(=O)c2ccc(C)cc2)c2nc3ccccc3nc2n1C(C)c1ccccc1 (configuration not stated) 28.2 µM [activator, partial curve]
Cc1ccc(N(CC(O)Cn2c3ccccc3c3ccccc32)S(C)(=O)=O)c(C)c1 (configuration not stated) 6.31 µM [inhibitor, single point]
Cc1cccc(C(=O)Nc2cccc(OC(=O)c3cccc(C)c3)c2)c1 39.8 µM [inhibitor, partial curve, poor fit]
Brc1ccc2c(c1)C(c1ccc(N3CCOCC3)cc1)=NNC(c1cccs1)=N2 4.47 µM [inhibitor, full curve]
Cc1cc2nc(-c3ccc(NC(=O)c4cccnc4)cc3)oc2cc1C 50.1 µM [activator, single point]
CCCOc1ccc(C2C(C(=O)OC)=C(C)N=C3SCCC(=O)N32)cc1OCC (configuration not stated) 0.178 µM [inhibitor, full curve, poor fit]
COc1cc2cc(C(N)=O)c(N)nc2cc1OC 35.5 µM [activator, partial curve]
COc1ccc(S(=O)(=O)Nc2cc3c4c(oc3c3ccccc23)CCCC4=O)cc1 7.94 µM [inhibitor, full curve, poor fit]
CN(CC#CCC(c1ccccc1)c1ccccc1)C(C)(C)C 50.1 µM [inhibitor, partial curve, poor fit]
Cc1[nH]c2ccc(-c3nnc(SCC(=O)c4ccccc4F)o3)cc2c1C 11.2 µM [inhibitor, single point]
N#Cc1c(-n2ccnc2)cccc1-n1ccnc1 12.6 µM [inhibitor, single point]
Nc1c(C(=O)NCc2ccco2)c2nc3ccccc3nc2n1CCc1ccccc1 15.8 µM [activator, partial curve]
Cc1cc2ccccc2c(=O)[nH]1 3.55 µM [inhibitor, full curve, poor fit]
Cc1ccc(O)c(-c2cc3ccccc3[nH]2)c1 39.8 µM [activator, partial curve]
O=C1c2[nH]nc(-c3ccccc3O)c2C(c2cccc(O)c2)N1Cc1ccco1 (configuration not stated) 4.47 µM [inhibitor, partial curve]
COc1ccc(S(=O)(=O)N2CCOCC2)cc1NS(=O)(=O)/C=C/c1ccccc1 50.1 µM [inhibitor, single point]
COc1ccc2c(c1)c1ncn(CCN3CCCCC3)c(=O)c1n2C 35.5 µM [activator, partial curve]
Cc1cc(C)n(-c2nc(NCC3CCCO3)c3c4c(sc3n2)COC(C)(C)C4)n1 (configuration not stated) 5.01 µM [activator, partial curve, poor fit]
NS(=O)(=O)c1ccc(N2N=C(c3ccc(Br)cc3)CC2c2ccc(F)cc2)cc1 (configuration not stated) 31.6 µM [activator, partial curve]
N#Cc1c(C(F)(F)F)cc(-c2cccs2)nc1SCc1ccc(Cl)nc1 39.8 µM [activator, partial curve, poor fit]
CC1CCc2c(sc3nc(SCC(=O)NCc4ccco4)nc(N)c23)C1 (configuration not stated) 28.2 µM [inhibitor, single point]
N#CC(C#N)=NNc1ccc(S(=O)(=O)N2CCCCC2)cc1 56.2 µM [inhibitor, single point]
O=C(O)CC1=C(Nc2ccccc2)C(=O)N(c2ccccc2)C1c1ccc(F)cc1 (configuration not stated) 50.1 µM [inhibitor, single point]
CCOC(=O)C1CCN(S(=O)(=O)c2ccc(-c3cc(C(F)(F)F)n(C)n3)s2)CC1 50.1 µM [inhibitor, single point]
CC(=O)Nc1ccc(S(=O)(=O)NC2(C(F)(F)F)C(=O)Nc3c2c(=O)[nH]c(=O)n3Cc2ccccc2)cc1 (configuration not stated) 28.2 µM [inhibitor, single point]
Cc1ccsc1/C=N/NC(=O)CN1CCN(Cc2ccccc2)CC1 2.24 µM [inhibitor, full curve]

Activity change, negative = inhibition, inconclusive:
CC(C)c1nnc(NC(=O)CSc2nnc(-c3ccco3)o2)s1 16.6% [activator]
COC(=O)Cn1cccc1C(=O)c1ccccc1 -17.3% [inhibitor]
CCN1CCN(c2oc(COc3ccc(-c4ccccc4)cc3)nc2C#N)CC1 -16.7% [inhibitor]
Nc1nc2ccccc2cc1S(=O)(=O)c1ccccc1 26.4% [activator]
COc1ccc(/C=C/C(=O)c2ccc[nH]2)cc1OC -18.7% [inhibitor]
CC1CN(c2ccc([N+](=O)[O-])nc2)CC(C)O1 (configuration not stated) -17.9% [inhibitor]
Cc1nn2c3ccccc3n(CC(=O)c3cccs3)c2nc1=O 14.1% [activator]
CCCCN1C(=O)/C(=C/C=C2/C=Cc3ccccc3N2CC)SC1=S 17.9% [activator]
O=C(CCc1ccc(S(=O)(=O)NC2CCCCC2)cc1)NCc1ccccn1 12.5% [activator]
COc1ccc(-n2nc3c(=O)[nH][nH]c3cc2=O)cc1 -16% [inhibitor]
COc1ccc2oc(=O)c(-c3cn4ccc(C)cc4n3)cc2c1 19.9% [activator]
C/C(=N\Nc1nc(N2CCCCCC2)nc(N2CCCCCC2)n1)c1ccccc1 -16.3% [inhibitor]
